Data: patent publication US20250109186A1 (REGENTS OF THE UNIVERSITY OF MINNESOTA, published 2025)
Like-named read-outs stand apart in the source and are kept apart here.

Assays:
[1] = target: T1, prototypic SARS-CoV-2 RBD ([…]) with C-terminal His tag (SARS-CoV-2 (prototypic strain))
[2] = target: T1, prototypic SARS-CoV-2 RBD ([…]) with …; remark: listed apart in the source
[3] = target: T1, prototypic SARS-CoV-2 RBD ([…]) with …; remark: listed apart in the source
[4] = target: T1, prototypic SARS-CoV-2 RBD ([…]) with …; remark: listed apart in the source

B1: Nanosota-2A-Fc (Fc fusion)
chain: QVQLQESGGGAVQPGGSLGLSCTASGFNFETSTVGWFRQAPGKENEGVSCINKGYEDTNYADSVKGRFTISRDAAKNTVYLQMDSLQPEDTATYYCAAHNEPYFCDYSGRFRWNEYSYYGQGTQVTVSS[human IgG1 Fc omitted here]
B1 was tested, and the Kd [1] was 0.527 nM, the koff [2] was 0.00228 s⁻¹ and the kon [2] was 4.32e+06 M⁻¹ s⁻¹.

B2: Nanosota-3A-Fc (Fc fusion)
chain: QVQLQESGGGLVQAGGSLRLSCAASGSIFSPNTMGWFRQALGKQREMVAVISSIASTQYANFVKGRFTITRDNTKNTVHLQMNSLIPEDTAVYYCYAVDKSQDYWGQGTQVTVSS[human IgG1 Fc omitted here]
For B2, the Kd [1] was 4.55 nM, the koff [3] was 0.00123 s⁻¹ and the kon [3] was 270000 M⁻¹ s⁻¹.

B3: Nanosota-4A-Fc (Fc fusion)
chain: QVQLQESGGGLVQPGGSLRLSCAASGFTLDYYAIGWFRQAPGKEREGVSCISSSGGRTNYADSVKGRFTISRDNTKNTVYLQMNSLKPEDTAVYYCAAWEASRWYCPLQFSADFSSWGQGTQVTVSS[human IgG1 Fc omitted here]
Binder B3 has a Kd [1] of 0.184 nM, a koff [4] of 3.44e-05 s⁻¹ and a kon [4] of 187000 M⁻¹ s⁻¹.
